Some entries of the source have several records that differ or are many. This list holds those alone. An entry can have further records. Results that share an entry seem to repeat one measurement; a mean can stand among them. Positions of bridges follow the written chain, without caps; N, C: chain ends. Non-standard residues stand in square brackets, D forms with d. NMeF = CN[C@@H](Cc1ccccc1)C(=O)O; bMeAla = not defined here; NMeA = CN[C@@H](C)C(=O)O

Consider one molecule from patent US20220125891A1.

The test concerns the target Regnase-1 (analyte of the surface plasmon resonance competition assay, Example 26) (Homo sapiens (Human)) (UniProt Q5D1E8). The experiment in a line: SPR, Regnase-1 alone on captured PP7+tag (control).

B1: PP7+tag (peptide)
peptide: [NMeA]NFNSAYYRAIWD[bMeAla]GGTGTGTGT[NMeF]PIT[NMeF]PI-OH
modifications: lactam N-13; reading uncertain
B1: the competitiveness index is 0.93, 1.13, 0.99, 0.96 [lines of one column].
